Results on 20 molecules are retold here after publication PMC9911399, “Two distinct binding modes provide the RNA-binding protein RbFox with extraordinary sequence specificity”.

Where a chain is given by its changes, count along the chain named. Some of the results follow.

The chains are these.
T1: RBFOX1 RRM (Homo sapiens, UniProt Q9NWB1 109-208)
T1 sequence: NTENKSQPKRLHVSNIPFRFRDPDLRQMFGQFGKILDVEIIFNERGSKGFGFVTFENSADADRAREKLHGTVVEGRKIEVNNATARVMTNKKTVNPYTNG

B1: GUCAUCU (DNA:RNA)
RNA: GGGAGACCGGAAUUCAGAUUGUCCGUCAUCUUUAAAUCCCGUCGUAGCCACCA
DNA 1: CAATCTGAATTCCGGTCTCCC
DNA 2: TGGTGGCTACGACGGGATT
B2: GUUACCA (DNA:RNA)
RNA: B1 RNA with C27U, U29C, U31A
DNA 1: CAATCTGAATTCCGGTCTCCC
DNA 2: TGGTGGCTACGACGGGATT
B3: CAUGCUA (DNA:RNA)
RNA: GGGAGACCGGAAUUCAGAUUGUCCCAUGCUAUUAAAUCCCGUCGUAGCCACCA
DNA 1: CAATCTGAATTCCGGTCTCCC
DNA 2: TGGTGGCTACGACGGGATT
B4: GGAAUAA (DNA:RNA)
RNA: B1 RNA with U26G, C27A, C30A, U31A
DNA 1: CAATCTGAATTCCGGTCTCCC
DNA 2: TGGTGGCTACGACGGGATT
B5: CCAGAAC (DNA:RNA)
RNA: B3 RNA with A26C, U27A, C29A, U30A, A31C
DNA 1: CAATCTGAATTCCGGTCTCCC
DNA 2: TGGTGGCTACGACGGGATT
B6: GUUACAA (DNA:RNA)
RNA: B3 RNA with C25G, A26U, G28A, U30A
DNA 1: CAATCTGAATTCCGGTCTCCC
DNA 2: TGGTGGCTACGACGGGATT
B7: CCAUUAC (DNA:RNA)
RNA: B3 RNA with A26C, U27A, G28U, C29U, U30A, A31C
DNA 1: CAATCTGAATTCCGGTCTCCC
DNA 2: TGGTGGCTACGACGGGATT
B8: UUAUCAA (DNA:RNA)
RNA: B3 RNA with C25U, A26U, U27A, G28U, U30A
DNA 1: CAATCTGAATTCCGGTCTCCC
DNA 2: TGGTGGCTACGACGGGATT
B9: GCUCCGA (DNA:RNA)
RNA: B3 RNA with C25G, A26C, G28C, U30G
DNA 1: CAATCTGAATTCCGGTCTCCC
DNA 2: TGGTGGCTACGACGGGATT
B10: CUGCGGG (DNA:RNA)
RNA: B3 RNA with A26U, U27G, G28C, C29G, U30G, A31G
DNA 1: CAATCTGAATTCCGGTCTCCC
DNA 2: TGGTGGCTACGACGGGATT
B11: GCUAUGU (DNA:RNA)
RNA: B1 RNA with U26C, C27U, C30G
DNA 1: CAATCTGAATTCCGGTCTCCC
DNA 2: TGGTGGCTACGACGGGATT
B12: UUACGAG (DNA:RNA)
RNA: B1 RNA with G25U, C27A, A28C, U29G, C30A, U31G
DNA 1: CAATCTGAATTCCGGTCTCCC
DNA 2: TGGTGGCTACGACGGGATT
B13: CACGGAG (DNA:RNA)
RNA: B3 RNA with U27C, C29G, U30A, A31G
DNA 1: CAATCTGAATTCCGGTCTCCC
DNA 2: TGGTGGCTACGACGGGATT
B14: GUUAGUA (DNA:RNA)
RNA: B3 RNA with C25G, A26U, G28A, C29G
DNA 1: CAATCTGAATTCCGGTCTCCC
DNA 2: TGGTGGCTACGACGGGATT
B15: GCUAUGC (DNA:RNA)
RNA: B1 RNA with U26C, C27U, C30G, U31C
DNA 1: CAATCTGAATTCCGGTCTCCC
DNA 2: TGGTGGCTACGACGGGATT
B16: UCCCAGG (DNA:RNA)
RNA: B1 RNA with G25U, U26C, A28C, U29A, C30G, U31G
DNA 1: CAATCTGAATTCCGGTCTCCC
DNA 2: TGGTGGCTACGACGGGATT
B17: AUGCGUG (DNA:RNA)
RNA: B3 RNA with C25A, A26U, U27G, G28C, C29G, A31G
DNA 1: CAATCTGAATTCCGGTCTCCC
DNA 2: TGGTGGCTACGACGGGATT
B18: AUAAGUA (DNA:RNA)
RNA: B3 RNA with C25A, A26U, U27A, G28A, C29G
DNA 1: CAATCTGAATTCCGGTCTCCC
DNA 2: TGGTGGCTACGACGGGATT
B19: GUAGUAA (DNA:RNA)
RNA: B1 RNA with C27A, A28G, C30A, U31A
DNA 1: CAATCTGAATTCCGGTCTCCC
DNA 2: TGGTGGCTACGACGGGATT
B20: GCUUCUC (DNA:RNA)
RNA: B3 RNA with C25G, A26C, G28U, A31C
DNA 1: CAATCTGAATTCCGGTCTCCC
DNA 2: TGGTGGCTACGACGGGATT

The test has as its target T1, RBFOX1 RRM. Briefly: EMSA; HiTS-Eq, 1 nM pool, 10 min; buffer printed only for the single-RNA assays: 10 mM Tris pH 7.5, 150 mM NaCl, 3.4 mM EDTA, 0.001% NP-40, 30 C. To be noted: tags: His6 N-terminal (pET28a); label: 5' 32P. In short, it runs like this: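 Purified RbFox RRM (wild type or mutant) was equilibrated for 10 min in 50 µL with 1 nM of a 5′-radiolabelled pool of RNA with 7 randomized nucleotides, its flanks annealed to DNA oligonucleotides, across increasing protein concentrations. Free RNA was separated by 8% native PAGE, excised, reverse-transcribed, PCR-barcoded and sequenced on an Illumina HiSeq 2500. Relative association constants came from read-count changes of each variant against the control reaction, normalised to the cognate motif.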
Regarding B1, the binding signal was 0.00775 KA relative to UGCAUGU.

With B2, the binding signal was 0.00649 KA relative to UGCAUGU.

Regarding B3, the binding signal was 0.00212 KA relative to UGCAUGU.

Regarding B4, the binding signal is 0.00248 KA relative to UGCAUGU.

As for B5, the binding signal is 0.000363 KA relative to UGCAUGU.

Take B6: the binding signal was 0.00535 KA relative to UGCAUGU.

Consider B7, for which the binding signal was 0.000135 KA relative to UGCAUGU.

For B8, the binding signal was 0.00283 KA relative to UGCAUGU.

B9: the binding signal is 0.0205 KA relative to UGCAUGU.

Regarding B10, the binding signal is 0.013 KA relative to UGCAUGU.

For the molecule B11, the binding signal was 0.015 KA relative to UGCAUGU.

For B12, the binding signal was 0.00972 KA relative to UGCAUGU.

B13: the binding signal was 0.00829 KA relative to UGCAUGU.

B14: the binding signal is 0.009 KA relative to UGCAUGU.

As to B15, the binding signal is 0.0178 KA relative to UGCAUGU.

In the case of B16, the binding signal is 0.00343 KA relative to UGCAUGU.

Turning to B17, the binding signal was 0.0226 KA relative to UGCAUGU.

For the molecule B18, the binding signal was 0.00457 KA relative to UGCAUGU.

For B19, the binding signal was 0.00703 KA relative to UGCAUGU.

As for B20, the binding signal is 0.0177 KA relative to UGCAUGU.
